Data: the supplement of paper PMC9174493
Counter-ions that a name gives are not always drawn. This is one part of the list. Single values of this set are uncertain. Values with irradiation are relative to irradiated vehicle.

Experiments:
A549-Dual [1] = assay: NF-kB reporter (SEAP) activity, viability-corrected, relative to vehicle (fold change vs vehicle); higher = more activation of STING-IRF / NF-kB immune response reporter; settings: 10 µM
A549-Dual [2] = assay: ISRE reporter (Lucia luciferase) activity, viability-corrected, relative to vehicle (fold change vs vehicle); higher = more activation of STING-IRF / NF-kB immune response reporter; settings: 10 µM
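Wherever NF-kB reporter (SEAP) activity, viability-corrected, relative to vehicle is given: viability correction based on the alamar blue assay, with concentrations leaving 10% survival or less dropped.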

Compound	NF-kB reporter (A549-Dual [1]; irradiation: 8 Gy/4 fr)	NF-kB reporter (A549-Dual [1]; irradiation: none)	ISRE reporter (A549-Dual [2]; irradiation: 8 Gy/4 fr)	ISRE reporter (A549-Dual [2]; irradiation: none)
CCC(c1ccccc1)c1c(O)c2ccccc2oc1=O (configuration not stated) [Phenprocoumon]	0.53	0.953	0.314	0.393
CCCCc1nc(Cl)c(CO)n1Cc1ccc(-c2ccccc2-c2nnn[nH]2)cc1.[KH] [Losartan Potassium (DuP 753)]	0.641	0.909	0.592	0.701
CCN1C(=O)NC(c2ccccc2)C1=O (configuration not stated) [Ethotoin]	0.705	1.01	0.62	0.595
CC(O)C1C(=O)N2C(C(=O)O)=C(SCCNC=N)CC12.O (configuration not stated) [Imipenem]	0.907	0.792	0.918	0.922
CC(C)(C)NCC(O)c1cc(O)cc(O)c1.CC(C)(C)NCC(O)c1cc(O)cc(O)c1.O=S(=O)(O)O (configuration not stated) [Terbutaline Sulfate]	1.05	1.44	0.984	0.83
CC(C)COCC(CN(Cc1ccccc1)c1ccccc1)N1CCCC1.Cl.O (configuration not stated) [Bepridil hydrochloride]	0.697	0.87	0.37	0.901
Cc1cc(O)cc(O)c1 [Orcinol]	1	0.921	0.991	0.975
Cc1cccc(C)c1N(CC(=O)Nc1ccc(-c2ncon2)cc1)C(=O)C1CCS(=O)(=O)CC1 [Amenamevir]	0.847	0.851	0.747	0.648
O=C(Nc1ccc2c(=O)cc(-c3nnn[nH]3)oc2c1)c1ccc(OCCCCc2ccccc2)cc1 [Pranlukast]	0.43	0.45	0.65	0.468
CN(C)CC/C=C1/c2ccccc2Sc2ccc(Cl)cc21.Cl [Chlorprothixene hydrochloride]	0.955	1.51	0.833	1.13
Cc1cc(-c2ccccc2)nnc1NCCN1CCOCC1.Cl.Cl [Minaprine dihydrochloride]	0.761	0.624	0.74	0.49
COc1ccc(C(C)=O)c(O)c1 [Paeonol]	1.07	0.917	1.12	0.801
Cl.NCCc1ccc(O)c(O)c1 [Dopamine HCl]	1.18	1.2	0.96	0.822
Cl.NC1=NCC2c3ccccc3Cc3ccccc3N12 (configuration not stated) [Epinastine HCl]	0.778	0.886	0.837	0.754
Oc1cc2c(cc1O)C1c3ccc(O)c(O)c3OCC1(O)C2 (configuration not stated) [Hematoxylin]	1.13	0.916	0.99	0.565
Cc1cc(C)nc([N]([Na])S(=O)(=O)c2ccc(N)cc2)n1 [Sulfamethazine Sodium Salt]	0.888	0.954	0.768	0.793
CC(C)(O)C1CCC(C)(C2C(O)CC3(C)C4CC(OC5OC(CO)C(O)C(O)C5O)C5C(C)(C)C(OC6OCC(O)C(O)C6O)CCC56CC46CCC23C)O1 (configuration not stated) [Astragaloside IV]	0.781	0.668	0.674	0.497
CC1CCC2(C(=O)OC3OC(COC4OC(CO)C(OC5OC(C)C(O)C(O)C5O)C(O)C4O)C(O)C(O)C3O)CCC3(C)C(=CCC4C5(C)CC(O)C(O)C(C)(CO)C5C(O)CC43C)C2C1C (configuration not stated) [Madecassoside]	0.959	1.18	1.06	1.35
CCCCOCCOCCOCc1cc2c(cc1CCC)OCO2 [Piperonyl butoxide]	0.882	0.727	0.664	0.456
O=C1OC(C(O)CO)C(O)=C1O (configuration not stated) [Vitamin C]	0.53	0.658	0.762	0.618
Cl.Clc1cccc(Cl)c1NC1=NCCN1 [Clonidine HCl]	0.734	0.945	0.9	0.835
CCc1ccc(CCOc2ccc(CC3SC(=O)NC3=O)cc2)nc1 (configuration not stated) [Pioglitazone]	0.759	0.881	0.592	0.958
C=CC1CN2CCC1CC2C(O)c1ccnc2ccc(OC)cc12.C=CC1CN2CCC1CC2C(O)c1ccnc2ccc(OC)cc12.O.O.O=S(=O)(O)O (configuration not stated) [Quinidine sulfate]	0.757	1.07	0.966	0.784
CCCCCCCC/C=C\CCCCCCCC(=O)O [Oleic Acid]	0.89	0.769	0.83	0.924
CCOC(=O)C(CCc1ccccc1)NC(C)C(=O)N1Cc2ccccc2CC1C(=O)O.Cl (configuration not stated) [Quinapril HCl]	0.835	1.11	0.673	0.594
Cc1cn[nH]c1 [Fomepizole]	0.842	0.92	0.74	0.808
COC(=O)C1=C(C)NC(C)=C(C(=O)OC(C)(C)CN(C)CCC(c2ccccc2)c2ccccc2)C1c1cccc([N+](=O)[O-])c1.Cl (configuration not stated) [Lercanidipine hydrochloride]	0.618	1	0.533	0.704

Compound	NF-kB reporter (A549-Dual [1]; irradiation: 8 Gy/4 fr)	NF-kB reporter (A549-Dual [1]; irradiation: none)	ISRE reporter (A549-Dual [2]; irradiation: 8 Gy/4 fr)	ISRE reporter (A549-Dual [2]; irradiation: none)
CC(O)C1C(=O)N2C(C(=O)O)=C(SC3CNC(C(=O)N(C)C)C3)C(C)C12 (configuration not stated) [Meropenem]	0.822	0.937	0.763	0.683
CN(CCN1CCC(OC(=O)Nc2ccccc2-c2ccccc2)CC1)C(=O)c1ccc(CN2CCC(C(N)=O)CC2)cc1 [Revefenacin]	0.816	1.19	0.994	1.07
NCCCC[C@H](N)C(=O)O [L-lysine]	1.58	0.774	1.59	0.972
CC(C)(C)NC(=O)C1CN(Cc2cccnc2)CCN1CC(O)CC(Cc1ccccc1)C(=O)NC1c2ccccc2CC1O.O=S(=O)(O)O (configuration not stated) [Indinavir Sulfate]	0.765	0.931	0.712	0.751
O=CC(O)C(O)C(OC1OC(CO)C(O)C(O)C1O)C(O)CO (configuration not stated) [Maltose]	1.2	1.06	1.04	0.768
Cl.Cn1cc(C(=O)C2CCc3nc[nH]c3C2)c2ccccc21 (configuration not stated) [Ramosetron Hydrochloride]	0.784	0.964	0.862	0.91
CCN(CC)CC(=O)Nc1c(C)cccc1C.Cl [Lidocaine hydrochloride]	0.709	1.19	0.678	0.725
Cl.O=C1OC(CN2CCOCC2)CN1/N=C/c1ccc([N+](=O)[O-])o1 (configuration not stated) [Furaltadone HCl]	0.787	0.839	0.876	0.719
O=c1c(OC2OC(CO)C(O)C(O)C2O)c(-c2ccc(O)c(O)c2)oc2cc(O)cc(O)c12 (configuration not stated) [Isoquercitrin]	0.646	0.659	0.552	0.549
Cl.OC(CCN1CCCC1)(c1ccccc1)C1CCCCC1 (configuration not stated) [Procyclidine HCl]	1.11	0.829	1.2	0.854
COc1ccc(OC)c(C(O)CNC(=O)CN)c1.Cl (configuration not stated) [Midodrine hydrochloride]	0.626	1.15	0.66	0.886
CC(O)C1C(=O)N2C(C(=O)O)=C(SC3CNC(CNS(N)(=O)=O)C3)C(C)C12.O (configuration not stated) [Doripenem Hydrate]	0.77	0.905	0.789	0.704
CC(C)(O/N=C(/C(=O)NC1C(=O)N2C(C(=O)[O-])=C(C[n+]3ccccc3)CSC12)c1csc(N)n1)C(=O)O.O.O.O.O.O (configuration not stated) [Ceftazidime Pentahydrate]	1.15	0.901	1.02	0.939
CC(C)C(=O)OCC(=O)C12OC(C3CCCCC3)OC1CC1C3CCC4=CC(=O)C=CC4(C)C3C(O)CC12C (configuration not stated) [Ciclesonide]	0.603	1.01	0.124	0.363
O=C(OC1CC2CC3CC(C1)N2CC3=O)c1c[nH]c2ccccc12 (configuration not stated) [Dolasetron]	0.609	1.02	0.711	0.761
CC(C)(C)C(=O)C(Oc1ccc(Cl)cc1)n1ccnc1 (configuration not stated) [Climbazole]	0.873	1.03	0.814	0.828
Cc1nc(C)c(C)nc1C.Cl [Ligustrazine hydrochloride]	0.71	0.811	0.81	0.674
CCOC(=O)c1c(CSc2ccccc2)n(C)c2cc(Br)c(O)c(CN(C)C)c12.Cl [Arbidol HCl]	0.857	0.935	0.91	0.918
Cl.c1ccc2c(CC3=NCCN3)cccc2c1 [Naphazoline HCl]	1.18	1.07	0.985	1.07
O=C(O)C1OC(Oc2cc3oc(-c4ccc(O)cc4)cc(=O)c3c(O)c2O)C(O)C(O)C1O (configuration not stated) [Scutellarin]	1.23	0.822	0.959	0.625
COC1(NC(=O)CSCC(N)C(=O)O)C(=O)N2C(C(=O)[O-])=C(CSc3nnnn3C)CSC21.[Na+] (configuration not stated) [Cefminox Sodium]	0.708	0.898	0.727	0.744
CCC1(c2ccccc2)C(=O)NCNC1=O [Primidone]	0.609	0.833	0.64	0.776
Cc1cc(NS(=O)(=O)c2ccc(N)cc2)no1 [Sulfamethoxazole]	0.916	1.08	0.904	0.771
C=Cc1c(C)c2[n-]c1=CC1=NC(=CC3=C(C)C(=C([O-])[O-])C(=N3)C(CC(=O)[O-])=C3N=C(C=2)C(C)C3CCC(=O)[O-])C(CC)=C1C.[Cu+2].[Na+].[Na+].[Na+] (configuration not stated) [Chlorophyllin (sodium copper salt)]	0.576	0.704	0.225	0.319
O=[N+]([O-])c1ccc(O)cc1 [4-Nitrophenol]	0.861	0.991	0.757	0.722
[CH3][Co+][N]1/C2=C(/C)C3=N/C(=C\C4=NC(=C(/C)C5=NC(C(CC(N)=O)C5(C)CCC(=O)NCC(C)OP(=O)([O-])OC5C(CO)OC(n6cnc7cc(C)c(C)cc76)C5O)C1(C)C(C)(CC(N)=O)C2CCC(N)=O)/C(CCC(N)=O)C4(C)C)C(CCC(N)=O)C3(C)CC(N)=O (configuration not stated) [Methylcobalamin]	0.557	0.921	0.601	0.693
